Data from the supplement of paper PMC8728848.
Some of the results follow.

Columns and labels:
Experiment in all cases: glycan array binding signal (z-score within array); higher = stronger binding
Conditions in all cases: glycan notation: IUPAC condensed, linker removed
Fuc(a1-2)Gal = target: Fuc(a1-2)Gal
Method in brief: (§1)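 The binding signal is a Z-score computed within each array. Data were drawn from 3228 arrays in the Consortium for Functional Glycomics database, restricted to those with a known protein sequence. Scores were averaged over arrays of the same protein sequence at different concentrations or buffers, and over linkers, and negative values can be taken as non-binding.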

Fuc(a1-2)Gal(b1-3)GalNAc = target: Fuc(a1-2)Gal(b1-3)GalNAc
Method in brief: as §1

[1] = target: Fuc(a1-2)Gal(b1-3)GalNAc(b1-3)Gal
Method in brief: as §1

[2] = target: Fuc(a1-2)Gal(b1-3)GalNAc(b1-3)Gal(a1-4)Gal(b1-4)Glc
Method in brief: as §1

[3] = target: Fuc(a1-2)Gal(b1-3)GalNAc(b1-3)Gal(b1-4)Glc
Method in brief: as §1

[4] = target: Fuc(a1-2)Gal(b1-3)GalNAc(b1-4)[Neu5Ac(a2-3)]Gal(b1-4)Glc
Method in brief: as §1

[5] = target: Fuc(a1-2)Gal(b1-3)[Fuc(a1-4)]GlcNAc
Method in brief: as §1

Fuc(a1-2)Gal(b1-4)Glc = target: Fuc(a1-2)Gal(b1-4)Glc
Method in brief: as §1

Fuc(a1-2)Gal(b1-4)Glc6S = target: Fuc(a1-2)Gal(b1-4)Glc6S
Method in brief: as §1

Fuc(a1-2)Gal(b1-4)GlcNAc = target: Fuc(a1-2)Gal(b1-4)GlcNAc
Method in brief: as §1

[6] = target: Fuc(a1-2)Gal(b1-4)GlcNAc(b1-3)Gal(b1-4)GlcNAc
Method in brief: as §1

[7] = target: Fuc(a1-2)Gal(b1-4)GlcNAc(b1-3)Gal(b1-4)GlcNAc(b1-3)Gal(b1-4)GlcNAc
Method in brief: as §1

[8] = target: Fuc(a1-2)Gal(b1-4)GlcNAc6S
Method in brief: as §1

[9] = target: Fuc(a1-2)Gal(b1-4)[Fuc(a1-3)]GalNAc(b1-3)Gal(b1-4)[Fuc(a1-3)]GlcNAc
Method in brief: as §1

[10] = target: Fuc(a1-2)Gal(b1-4)[Fuc(a1-3)]GalNAc(b1-3)Gal(b1-4)[Fuc(a1-3)]GlcNAc(b1-3)Gal(b1-4)[Fuc(a1-3)]GalNAc
Method in brief: as §1

[11] = target: Fuc(a1-2)Gal(b1-4)[Fuc(a1-3)]GlcNAc
Method in brief: as §1

Fuc(a1-2)Gal6S(b1-4)Glc = target: Fuc(a1-2)Gal6S(b1-4)Glc
Method in brief: as §1

[12] = target: Fuc(a1-2)Gal6S(b1-4)Glc6S
Method in brief: as §1

[13] = target: Fuc(a1-2)Gal6S(b1-4)GlcNAc
Method in brief: as §1

Fuc(a1-2)GlcNAc = target: Fuc(a1-2)GlcNAc
Method in brief: as §1

Fuc(a1-2)[Gal(a1-3)]Gal = target: Fuc(a1-2)[Gal(a1-3)]Gal
Method in brief: as §1

[14] = target: Fuc(a1-2)[Gal(a1-3)]Gal(b1-3)GlcNAc
Method in brief: as §1

[15] = target: Fuc(a1-2)[Gal(a1-3)]Gal(b1-4)Glc
Method in brief: as §1

[16] = target: Fuc(a1-2)[Gal(a1-3)]Gal(b1-4)GlcNAc
Method in brief: as §1

[17] = target: Fuc(a1-2)[Gal(a1-3)]Gal(b1-4)[Fuc(a1-3)]GlcNAc
Method in brief: as §1

[18] = target: Fuc(a1-2)[Gal(a1-4)]Gal(b1-4)GalNAc
Method in brief: as §1

[19] = target: Fuc(a1-2)[GalNAc(a1-3)]Gal
Method in brief: as §1

[20] = target: Fuc(a1-2)[GalNAc(a1-3)]Gal(b1-3)GlcNAc
Method in brief: as §1

[21] = target: Fuc(a1-2)[GalNAc(a1-3)]Gal(b1-4)Glc
Method in brief: as §1

[22] = target: Fuc(a1-2)[GalNAc(a1-3)]Gal(b1-4)GlcNAc
Method in brief: as §1

[23] = target: Fuc(a1-2)[GalNAc(a1-3)]Gal(b1-4)[Fuc(a1-3)]GlcNAc
Method in brief: as §1

[24] = target: Fuc(a1-2)[GalNAc(a1-4)]Gal(b1-4)GlcNAc
Method in brief: as §1

Fuc(a1-3)GlcNAc = target: Fuc(a1-3)GlcNAc
Method in brief: as §1

[25] = target: Fuc(a1-3)[Gal(b1-4)]Glc6S
Method in brief: as §1

[26] = target: Fuc(a1-3)[Gal(b1-4)]GlcNAc
Method in brief: as §1

[27] = target: Fuc(a1-3)[Gal(b1-4)]GlcNAc(b1-3)Gal(b1-3)[Fuc(a1-4)]GlcNAc
Method in brief: as §1

[28] = target: Fuc(a1-3)[Gal(b1-4)]GlcNAc(b1-4)Gal(b1-4)[Fuc(a1-3)]GlcNAc
Method in brief: as §1

[29] = target: Fuc(a1-3)[Gal(b1-4)]GlcNAc(b1-4)Gal(b1-4)[Fuc(a1-3)]GlcNAc(b1-4)Gal(b1-4)[Fuc(a1-3)]GlcNAc
Method in brief: as §1

[30] = target: Fuc(a1-3)[Gal(b1-4)]GlcNAc6S
Method in brief: as §1

[31] = target: Fuc(a1-3)[Gal3S(b1-4)]Glc
Method in brief: as §1

[32] = target: Fuc(a1-3)[Gal3S(b1-4)]Glc6S
Method in brief: as §1

[33] = target: Fuc(a1-3)[Gal3S(b1-4)]GlcNAc
Method in brief: as §1

[34] = target: Fuc(a1-3)[Gal3S(b1-4)]GlcNAc6S
Method in brief: as §1

[35] = target: Fuc(a1-3)[GalNAc(b1-4)]Gal(b1-4)GlcNAc
Method in brief: as §1

Fuc(a1-4)GlcNAc = target: Fuc(a1-4)GlcNAc
Method in brief: as §1

B1: X56-1 (Clostridium perfringens), P26831 (protein)
chain: MGSSHHHHHHSSGLVPRGSHMASDPNRIIATYISNRQDAPTGNPDNIFDNNASTELVYKNPNRIDVGTYVGVKYSNPITLNNVEFLMGANSNPNDTMQKAKIQYTVDGREWIDLEEGVEYTMPGAIKVENLDLKVRGVRLIATEARENTWLGVRDINVNKKEDSNSGVEF
glycan array binding signal (z-score) (Fuc(a1-2)Gal): 0.005 | glycan array binding signal (z-score) (Fuc(a1-2)Gal(b1-3)GalNAc): 0.09 | glycan array binding signal (z-score) [1]: 0.726 | glycan array binding signal (z-score) [2]: 0.367 | glycan array binding signal (z-score) [3]: 0.136 | glycan array binding signal (z-score) [4]: -0.392 | glycan array binding signal (z-score) [5]: 0.103 | glycan array binding signal (z-score) (Fuc(a1-2)Gal(b1-4)Glc): -0.15 | glycan array binding signal (z-score) (Fuc(a1-2)Gal(b1-4)Glc6S): -0.201 | glycan array binding signal (z-score) (Fuc(a1-2)Gal(b1-4)GlcNAc): 0.322 | glycan array binding signal (z-score) [6]: -0.011 | glycan array binding signal (z-score) [7]: -0.369 | glycan array binding signal (z-score) [8]: -0.244 | glycan array binding signal (z-score) [9]: 0.083 | glycan array binding signal (z-score) [10]: -0.025 | glycan array binding signal (z-score) [11]: 0.085 | glycan array binding signal (z-score) (Fuc(a1-2)Gal6S(b1-4)Glc): -0.037 | glycan array binding signal (z-score) [12]: -0.263 | glycan array binding signal (z-score) [13]: -0.389 | glycan array binding signal (z-score) (Fuc(a1-2)GlcNAc): 0.123 | glycan array binding signal (z-score) (Fuc(a1-2)[Gal(a1-3)]Gal): -0.238 | glycan array binding signal (z-score) [14]: -0.349 | glycan array binding signal (z-score) [15]: -0.234 | glycan array binding signal (z-score) [16]: -0.44 | glycan array binding signal (z-score) [17]: -0.278 | glycan array binding signal (z-score) [18]: -0.145 | glycan array binding signal (z-score) [19]: 0.581 | glycan array binding signal (z-score) [20]: -0.09 | glycan array binding signal (z-score) [21]: -0.425 | glycan array binding signal (z-score) [22]: 0.008 | glycan array binding signal (z-score) [23]: -0.123 | glycan array binding signal (z-score) [24]: 0.358 | glycan array binding signal (z-score) (Fuc(a1-3)GlcNAc): -0.245 | glycan array binding signal (z-score) [25]: -0.327 | glycan array binding signal (z-score) [26]: -0.089 | glycan array binding signal (z-score) [27]: -0.339 | glycan array binding signal (z-score) [28]: -0.282 | glycan array binding signal (z-score) [29]: -0.271 | glycan array binding signal (z-score) [30]: -0.489 | glycan array binding signal (z-score) [31]: -0.199 | glycan array binding signal (z-score) [32]: 0.711 | glycan array binding signal (z-score) [33]: -0.063 | glycan array binding signal (z-score) [34]: -0.341 | glycan array binding signal (z-score) [35]: 0.049 | glycan array binding signal (z-score) (Fuc(a1-4)GlcNAc): -0.46
